Measurements published in PMC11911400, “Mechanism of ASF1 engagement by CDAN1” (Nature Communications, 2025).
Substitutions are numbered along the chain they refer to. No constants are given. Whether binding was seen depends on the method and setting. Binding seen in cells or lysates may run through a third protein. Some results given as binding are weak or reduced against the parent protein; the word gives no strength. For some of these results: Sequences can lack the tags named with a protein.

Chains of the proteins cited; added tags and fusions are not shown.
UniProt Q9NVP2: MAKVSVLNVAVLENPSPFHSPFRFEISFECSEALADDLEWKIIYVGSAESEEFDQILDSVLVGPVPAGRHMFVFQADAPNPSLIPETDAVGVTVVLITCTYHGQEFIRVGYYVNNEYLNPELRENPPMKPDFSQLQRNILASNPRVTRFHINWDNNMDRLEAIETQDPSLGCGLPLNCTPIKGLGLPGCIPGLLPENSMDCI
UniProt Q9Y294: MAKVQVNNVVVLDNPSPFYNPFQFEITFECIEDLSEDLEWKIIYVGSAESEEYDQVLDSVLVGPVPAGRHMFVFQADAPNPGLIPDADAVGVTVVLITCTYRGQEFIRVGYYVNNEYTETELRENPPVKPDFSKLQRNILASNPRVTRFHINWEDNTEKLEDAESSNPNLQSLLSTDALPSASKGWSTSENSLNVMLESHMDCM

How the values were obtained:
[1] = target: T1, Strep-tagged CDAN1 (ST-CDAN1), wildtype (human, UniProt Q8IWY9 1-1227); assay: pull-down; Strep-Tactin pulldown of transiently transfected ST-CDAN1 variants from Flp-In 293 T-REx lysates; endogenous ASF1A, ASF1B and CDIN1 detected by immunoblotting; IP buffer with 1% Triton X-100, 1 hr at 4 °C
T1 construct: Codanin-1 (CDAN1), human, 1227 residues; cDNA from Horizon Discovery/Dharmacon, its point mutation S421F corrected; same construct used in Expi293 and in Flp-In 293 T-REx cells; dimer by SEC-MALS and cryo-EM; also called Strep-CDAN1; WT CDAN1; source: Expi293, transiently transfected, in lysate and purified in complexes (anti-FLAG, Strep-Tactin); Flp-In 293 T-REx, transiently transfected, in …
T1 sequence: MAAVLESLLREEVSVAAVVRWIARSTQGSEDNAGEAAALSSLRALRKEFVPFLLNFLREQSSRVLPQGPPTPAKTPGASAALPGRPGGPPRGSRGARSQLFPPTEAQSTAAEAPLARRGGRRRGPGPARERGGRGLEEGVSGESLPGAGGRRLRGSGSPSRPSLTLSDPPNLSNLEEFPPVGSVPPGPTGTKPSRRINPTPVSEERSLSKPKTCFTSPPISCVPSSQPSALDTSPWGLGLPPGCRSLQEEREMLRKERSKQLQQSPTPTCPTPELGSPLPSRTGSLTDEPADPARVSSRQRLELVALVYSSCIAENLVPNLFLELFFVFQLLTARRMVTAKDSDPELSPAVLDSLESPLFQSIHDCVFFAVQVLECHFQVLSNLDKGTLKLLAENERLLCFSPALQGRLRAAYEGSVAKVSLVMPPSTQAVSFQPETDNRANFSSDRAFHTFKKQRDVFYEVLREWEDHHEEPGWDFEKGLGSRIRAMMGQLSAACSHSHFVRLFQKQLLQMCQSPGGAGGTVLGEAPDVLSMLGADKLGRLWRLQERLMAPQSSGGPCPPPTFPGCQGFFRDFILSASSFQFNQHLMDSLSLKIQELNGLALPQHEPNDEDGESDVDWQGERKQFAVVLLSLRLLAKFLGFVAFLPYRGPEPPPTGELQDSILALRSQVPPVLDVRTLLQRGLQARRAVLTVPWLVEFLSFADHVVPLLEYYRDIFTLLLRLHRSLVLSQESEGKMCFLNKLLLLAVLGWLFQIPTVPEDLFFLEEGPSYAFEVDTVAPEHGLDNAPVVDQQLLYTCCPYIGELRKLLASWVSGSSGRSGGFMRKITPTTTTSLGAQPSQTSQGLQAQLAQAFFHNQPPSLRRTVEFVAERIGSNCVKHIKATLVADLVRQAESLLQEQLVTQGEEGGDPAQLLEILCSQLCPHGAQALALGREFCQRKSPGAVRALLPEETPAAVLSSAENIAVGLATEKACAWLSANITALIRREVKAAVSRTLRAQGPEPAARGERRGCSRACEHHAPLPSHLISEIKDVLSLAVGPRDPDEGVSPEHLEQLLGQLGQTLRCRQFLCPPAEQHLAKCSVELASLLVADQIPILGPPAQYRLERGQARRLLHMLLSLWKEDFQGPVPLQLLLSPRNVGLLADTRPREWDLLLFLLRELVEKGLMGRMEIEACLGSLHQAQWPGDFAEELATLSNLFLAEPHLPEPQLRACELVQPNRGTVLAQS

[2] = target: T2, Strep-CDAN1 HMHA1* BDA2* (human) (UniProt Q8IWY9); assay: as above
T2 sequence: T1 sequence with S194A, R195A, R196A, R541A, R544A, R548A

| binding [1] | binding [2] | Substance |
| --- | --- | --- |
| binds | no binding | endogenous ASF1B (from UniProt Q9NVP2 1-202) |
| binds | no binding | endogenous ASF1A (from UniProt Q9Y294 1-204) |
